Consider one molecule from article PMC11993666 (2025).

For this assay, the target named is ChiLob7/4 hIgG1. The experiment in a line: SPR.
ChiLob7/4 hIgG1, sequence (P25942 21-277): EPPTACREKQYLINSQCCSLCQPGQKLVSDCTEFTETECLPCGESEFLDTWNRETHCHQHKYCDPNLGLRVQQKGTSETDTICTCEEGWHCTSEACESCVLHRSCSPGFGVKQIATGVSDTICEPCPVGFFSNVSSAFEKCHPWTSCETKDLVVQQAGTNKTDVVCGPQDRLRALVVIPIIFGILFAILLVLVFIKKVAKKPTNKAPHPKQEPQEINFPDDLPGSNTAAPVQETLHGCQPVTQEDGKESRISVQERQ

B1: hCD40 (as used in SPR) (receptor)
chain: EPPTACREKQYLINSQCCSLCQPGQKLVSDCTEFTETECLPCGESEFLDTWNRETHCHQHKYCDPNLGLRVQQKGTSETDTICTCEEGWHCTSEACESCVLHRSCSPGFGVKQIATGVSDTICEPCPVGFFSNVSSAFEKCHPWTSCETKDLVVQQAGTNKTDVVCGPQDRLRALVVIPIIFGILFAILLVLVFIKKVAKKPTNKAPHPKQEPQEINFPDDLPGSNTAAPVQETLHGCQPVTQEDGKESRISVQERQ
In the case of B1, binding was characterised by a dissociation constant (Kd) of 0.579 nM and the off-rate constant (koff) – broadly, a measure of how fast the partners let go of each other – was 7.47e-05 s⁻¹.
